Test results as given in the RNAGym collection of RNA variant scans (doi:10.7554/elife.90254).
Read counts are not given, so values of variants with three or more changes are uncertain.

B1: LINE1-mini (parent)
chain: GGCAGAGCUCAACACAGCGUGGCAAAGUGGCUGUGGCUAGACUGCC

Variants of: B1
Assay: self-cleavage, relative activity (ratio to wild type); higher = more cleavage; in vitro, sequencing; the parent is a self-cleaving ribozyme
A4G G7U G27C G36U showed a self-cleavage of 0.11. Work on A4G G5A C37U yielded a self-cleavage of 0.03. With A4G G7C A14U A24U G27A the self-cleavage was 0.18. A4G G7U G21U G22C G44C gave a self-cleavage of 0.09. In the case of A4G G7U A11U, the self-cleavage is reported as 0.04. With A4G C13G C15U A25C U34A G35C the self-cleavage was 0.08. For A4G C13U G35A, the self-cleavage was 0.03. Work on A4G C13U G35U yielded a self-cleavage of 0.05. A4G G21A C23U C31A G33U U34G showed a self-cleavage of 0.02. In the case of A4G G7C U20C U34A C37U, the self-cleavage is reported as 0.04. A4G C15U A24G A25G G29A U43A gave a self-cleavage of 0.04. With A4G G5U A6G A12C the self-cleavage was 0.05. For A4G C42U G44C, the self-cleavage was 0.5. For A4G C18A C37U C42U, the self-cleavage was 0.01. In the case of A4G C18U G29C, the self-cleavage is reported as 0.13. Variant A4G G5A G7A G17C has a self-cleavage of 0.14. With A4G G21U U32A the self-cleavage was 0.04. With A4G C23A G27C C45G the self-cleavage was 0.01. A4G C31U C45U showed a self-cleavage of 0.03. A4G C37A G40C gave a self-cleavage of 0.21. Variant A4G G7A A26C C31A G44U has a self-cleavage of 0.19. Work on A4G C23G G29C G30A yielded a self-cleavage of 0.17. Variant A4G G5A A14C C37A has a self-cleavage of 0.06. For A4G G22U U34A C46A, the self-cleavage was 0.37. A4G C15G C45A gave a self-cleavage of 0.01. Work on A4G G27C G33A U34C yielded a self-cleavage of 0.05. With A4G G27U G33A the self-cleavage was 0.04. A4G G5U A6U C46U showed a self-cleavage of 0.05. With A4G G5A C10A A14U C18G the self-cleavage was 0.02. For A4G G29A C45U, the self-cleavage was 1.29. For A4G C18U A25C G29C G33C, the self-cleavage was 0.03. In the case of A4G C31G G44C, the self-cleavage is reported as 0.02. A4G C31G C45U showed a self-cleavage of 0.15. In the case of A4G C18A G36C, the self-cleavage is reported as 0.02. Variant A4G G7C C18G has a self-cleavage of 0.16. Work on A4G C10U G22A C23U A39C G44U C45A yielded a self-cleavage of 0.01. Variant A4G C15G G22C A26C C46A has a self-cleavage of 0.01. A4G G5C C31A C37G U38A gave a self-cleavage of 0.02. In the case of A4G C23U C31U, the self-cleavage is reported as 0.13. Work on A4G G5A A14G G17C G19U G30A yielded a self-cleavage of 0.07. A4G G7U C15A A16U G21C showed a self-cleavage of 0.03. With A4G G27A U34A the self-cleavage was 0.16. Work on A4G G7A G17U G35U C42A yielded a self-cleavage of 0.56. Work on A4G G5A A26U yielded a self-cleavage of 0.5. A4G G17C G21A C37G gave a self-cleavage of 0.07. A4G G5U A14U G29U showed a self-cleavage of 0.05. For A4G C15U C18U U20A G36A U43C, the self-cleavage was 0.05. A4G G17C G30U gave a self-cleavage of 0.06. Work on A4G C15G G22C A26G G44C yielded a self-cleavage of 0.01. Work on A4G G7C A39U yielded a self-cleavage of 0.17. A4G C13U C15A C18A U28G gave a self-cleavage of 0.02. Work on A4G G29A G36U yielded a self-cleavage of 0.67. In the case of A4G C15A C18U G29C C37A G40C C46G, the self-cleavage is reported as 0.08. With A4G G7A G35C C42G the self-cleavage was 0.19. A4G G7A C37U C42G gave a self-cleavage of 0.02. Variant A4G G29U G40C has a self-cleavage of 0.11. In the case of A4G G7U G30U G35U G40C, the self-cleavage is reported as 0.12. With A4G G5A C42A C45U the self-cleavage was 0.01. In the case of A4G G7C A14U G27A, the self-cleavage is reported as 0.1. A4G G7C C8U showed a self-cleavage of 0.13. With A4G G5U C37U the self-cleavage was 0.19. With A4G C10U U32C the self-cleavage was 0.03. Variant A4G G7A A11G G44A has a self-cleavage of 0.02. In the case of A4G G7A A14C G30U U34G, the self-cleavage is reported as 0.15. A4G G27A U28A C45A showed a self-cleavage of 0.11. In the case of A4G G7C G44U C45U, the self-cleavage is reported as 0.02. In the case of A4G G7A C8G G22U U28G C37G G40C, the self-cleavage is reported as 0.04. A4G G7A C15A G36U showed a self-cleavage of 0.11. In the case of A4G G7A G36U, the self-cleavage is reported as 0.05. Work on A4G C13A G33A G40U yielded a self-cleavage of 0.14. A4G G7A G19C G29A G30A A39U showed a self-cleavage of 0.16. A4G G17U A24U gave a self-cleavage of 0.12. Work on A4G C18A A26C U43A yielded a self-cleavage of 0.07. A4G C10U U32G G40A C42A showed a self-cleavage of 0.07. Variant A4G G17A G19U has a self-cleavage of 0.03. A4G G5C A41C showed a self-cleavage of 0.04. A4G G19A U32A C37A showed a self-cleavage of 0.1. In the case of A4G G19C A26G U28G G36U C42A, the self-cleavage is reported as 0.02. Variant A4G G22A U28C has a self-cleavage of 0.09. With A4G G27U U32G the self-cleavage was 0.1. A4G C13U G29U C46G showed a self-cleavage of 0.08. Work on A4G G5A G44C yielded a self-cleavage of 0.01. Work on A4G G22U C23U U28C U34G G35C G36U C46A yielded a self-cleavage of 0.01. With A4G G33A U38G the self-cleavage was 0.03. Variant A4G C13A G27U G36U has a self-cleavage of 0.19. A4G G17A G44C showed a self-cleavage of 0.06. A4G G5C C42A gave a self-cleavage of 0.04. With A4G C15G G30C the self-cleavage was 0.07. Variant A4G G5A C18A C23U A41C has a self-cleavage of 0.01. In the case of A4G G7U G22U, the self-cleavage is reported as 0.09. Variant A4G G7U U9C G19U G22A has a self-cleavage of 0.02. With A4G G7U C45G the self-cleavage was 2.97. A4G G21C C42A gave a self-cleavage of 0.1. A4G C13A U28C C37A G44C gave a self-cleavage of 0.01. With A4G C13G G17C G22A A41U the self-cleavage was 0.03. With A4G C13A G21A G30U A39U the self-cleavage was 0.13. With A4G G7C A41U the self-cleavage was 0.25. For A4G G22A U43A C46A, the self-cleavage was 0.05. A4G C18G G35C gave a self-cleavage of 0.18. With A4G C18U A24C the self-cleavage was 0.35. For A4G G19A U34C, the self-cleavage was 0.2. For A4G G29A G40U A41U, the self-cleavage was 0.17. A4G C13U C37U gave a self-cleavage of 0.25. A4G G17A C18A G19U G44U C45A showed a self-cleavage of 0.01. Variant A4G C18U U20C G29U U32A has a self-cleavage of 0.03. A4G C15A U20C A24U G29C C31G G35C G44C showed a self-cleavage of 0.01. Variant A4G C13U C42A has a self-cleavage of 0.1. A4G G17U A41U gave a self-cleavage of 0.07. Work on A4G G7A G17C G27C A39G yielded a self-cleavage of 0.19. For A4G G5A C15G A24U A39G, the self-cleavage was 0.03. In the case of A4G G33C U34G C45A, the self-cleavage is reported as 0. For A4G G7C G19C A39G C42A, the self-cleavage was 0.11. Variant A4G G29U G35U has a self-cleavage of 0.13. In the case of A4G C42G C46G, the self-cleavage is reported as 0.03. With A4G G19U G30A the self-cleavage was 0.69. Variant A4G C18A G35A has a self-cleavage of 0.04. Work on A4G C15U C45U yielded a self-cleavage of 0.2. In the case of A4G G17U G22U G36A, the self-cleavage is reported as 0.63. In the case of A4G C13A C15A A24C, the self-cleavage is reported as 0.02. With A4G G5C A12U C37U the self-cleavage was 0.02. Variant A4G G7A C10A has a self-cleavage of 0.06. In the case of A4G G21U G35U A39C, the self-cleavage is reported as 0.38. For A4G C18U G35U, the self-cleavage was 0.08. Variant A4G C13A G27U has a self-cleavage of 0.06. Work on A4G C23A G27A C31A G44C yielded a self-cleavage of 0.02. A4G C45G C46A gave a self-cleavage of 0.08. In the case of A4G G30A G35C G44U, the self-cleavage is reported as 0.07. Variant A4G G7C G19U A25G C37U has a self-cleavage of 0.08. In the case of A4G G5C U20A, the self-cleavage is reported as 0.15. With A4G G27C G29U G33C the self-cleavage was 0.04. A4G C15G G33U U43C showed a self-cleavage of 0.04. In the case of A4G C13U G40C, the self-cleavage is reported as 0.2. Work on A4G C13A G19U yielded a self-cleavage of 0.03. A4G C42G C45G showed a self-cleavage of 0.02. A4G C13U C23U G29C G40U C42G U43A showed a self-cleavage of 0.09. In the case of A4G C15A G30A, the self-cleavage is reported as 0.08. Work on A4G G7U A16C G44A yielded a self-cleavage of 0.04. For A4G G7A C10G G19C, the self-cleavage was 0.01. In the case of A4G G17U G29U C46A, the self-cleavage is reported as 0.27. For A4G G7U G22A U28G, the self-cleavage was 0.04. Work on A4G C13U G40A C46A yielded a self-cleavage of 0.21. Work on A4G G5C C15G C23U yielded a self-cleavage of 0.03. With A4G G17A C23A U34C the self-cleavage was 0.33. Variant A4G G22U U28A G33A U34A G36U A41C has a self-cleavage of 0.09. In the case of A4G G21U C31G, the self-cleavage is reported as 0.18. Variant A4G G21U C31A has a self-cleavage of 0.25. A4G G30C C31G G33U showed a self-cleavage of 0.15. Variant A4G C13A U32A C37A has a self-cleavage of 0.05. Work on A4G G17U G29U U34C yielded a self-cleavage of 0. With A4G C23A G27A G30U C45A the self-cleavage was 0.08. With A4G C23A C37G the self-cleavage was 0.04. Work on A4G G19C G22A G40C C42G yielded a self-cleavage of 0. In the case of A4G G29C G36C A41C, the self-cleavage is reported as 0.1. With A4G G5U A24G the self-cleavage was 0.24. With A4G G5A A6U A16G G44C the self-cleavage was 0.01. A4G G22U G33C C42A C46A showed a self-cleavage of 0.18. In the case of A4G G27U G40A, the self-cleavage is reported as 0.25. A4G G7C C18A G35A showed a self-cleavage of 0.24. Variant A4G G7C G29U C42A has a self-cleavage of 0.18. A4G G19C C23A G40C gave a self-cleavage of 0. With A4G C37A A41U C45A the self-cleavage was 0.07. In the case of A4G C13A G19A A25G, the self-cleavage is reported as 0.02. For A4G C13U U20A G27U, the self-cleavage was 0.04. Work on A4G C13U G19C U32A U34G G40C yielded a self-cleavage of 0.11. With A4G G21A C37U the self-cleavage was 0.05. Variant A4G C18A A24U C31A has a self-cleavage of 0.07. For A4G G21U A24G U34C A41G G44C, the self-cleavage was 0.02.
